Reference: the supplement of paper PMC11417369
The other results are listed elsewhere or left out.

system: PF3D7_0420300 AP2 domain 1 (GST-tagged); assay: gcPBM binding intensity (ln(normalized median fluorescence intensity)); higher = stronger DNA binding
In short: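 GST-fused DNA-binding domains of P. falciparum, expressed in E. coli, were applied at about 25 μg on average for 1 h to an Agilent 4 × 180k array of primer-extended double-stranded 36-bp intergenic genomic probes and negative controls. Binding intensity is the highest Masliner-normalised natural-log median intensity across replicate spots of either probe orientation, measured with Alexa488 anti-GST antibody and a 488 nm scan.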

First: AAAACATACCTATATACACACATATAAATATAAATA [CACACA_site6956]
Second: TTTGATATAGAAAGAGCATGCAAGTTAGATAAAATA [TGCATGCA_site470]
The “gcPBM binding intensity (ln)” value of the first is higher: 9.71 for the first, 9.25 for the second.

First: TATATATTAATATACACACACACATATATATATATA [CACACA_site1608]
Second: AATAAATTATTATGTACACACATAATAGTATATATA [CACACA_site1820]
The “gcPBM binding intensity (ln)” value of the first is higher: 9.81 for the first, 9.41 for the second.

Compared with “CAGTTAATGTTGGTACTTTATATAAAAATGATATGA [CACACA_negctrl_site1600]”, “ATAACAACATTTGATAAACACACAGAAGTATAAATA [CACACA_site8739]” is higher in “gcPBM binding intensity (ln)” value: 9.08 for the first, 9.64 for the second.

Compared with “TCTTTCTCTCTTCAAAGTACATATAATATATACTTC [XGTACX_site7982]”, “TTATTAATATTGCATGCACACTATATAATAATTGAA [CACACA_site8258]” is lower in “gcPBM binding intensity (ln)” value: 9.17 for the first, 9.14 for the second.

First: AAAATATAGTTATCAATATATAATATTTTTTTTTTA [CACACA_negctrl_site459]
Second: TATAAATAGGCATATACACACTTTTAATATTCATAA [CACACA_site6123]
The “gcPBM binding intensity (ln)” value of the first is lower: 8.91 for the first, 9.3 for the second.

Compared with “GTATTTTTAAATGACACACACATATATATATATATA [CACACA_site1662]”, “TTTGAACGAAAATACTCACACATATTTATAAACATT [CACACA_site5182]” is lower in “gcPBM binding intensity (ln)” value: 9.56 for the first, 9.22 for the second.

Going from “ATTTTTCATATATATATATTAATATATATATATTAA [CACACA_negctrl_site1681]” to “AAAAATATATTATATGTACACACAAAATTAAGGGAT [CACACA_site8384]”, the “gcPBM binding intensity (ln)” value rises from 9.05 to 9.84.

Going from “TGAATATTTATACATGCACACTAAAATAAAGAATCT [CACACA_site5351]” to “AAAATTTCTTTTTTTTGTACATATATAATAATATAT [XGTACX_site7107]”, the “gcPBM binding intensity (ln)” value falls from 9.44 to 8.92.

Going from “ATTATATATACATAATGTACATATATATATTACCTT [XGTACX_site7624]” to “TATAAAATGACTATATATAATATTAAAAAAAAAAAA [TGCATGCA_negctrl_site387]”, the “gcPBM binding intensity (ln)” value falls from 9.34 to 9.11.

First: AAAAAAAAAAAAAATTCACACACATATAAAAAATTA [CACACA_site8140]
Second: TAAATTAAGAATTTTACACACATTAAATAAAAAAAA [CACACA_site3638]
The “gcPBM binding intensity (ln)” value of the first is higher: 9.64 for the first, 9.39 for the second.

Compared with “TTTTTTTATTTTTTTATAAATGTATTTCTATTATTT [CACACA_negctrl_site1562]”, “AAATTAGGAAATTGCACACAAAAAAAAACATATTAT [CACACA_site4074]” is higher in “gcPBM binding intensity (ln)” value: 9.3 for the first, 9.62 for the second.

Going from “CAAACACCCAAACACACACACACATACATACATACA [CACACA_site8044]” to “TTTTTTTTTTTTTGTGTGCACCTTATTTTTTTGTAT [GTGCAC_site9617]”, the “gcPBM binding intensity (ln)” value falls from 10.2 to 9.62.

First: ATAGTAATGCATAAATATATATTATATATATATATA [XGTACX_negctrl_site576]
Second: CTATTGTTAAATATAATACACACGTTTTTAAAAATA [CACACA_site2183]
The “gcPBM binding intensity (ln)” value of the first is higher: 9.27 for the first, 9.22 for the second.

First: GTATATATTTTGTATTCATTTGTCACATATAATAGA [CACACA_negctrl_site506]
Second: TATATTATTTATATTTGTACACAGCGATATGAAATA [XGTACX_site987]
The “gcPBM binding intensity (ln)” value of the first is higher: 9.43 for the first, 9.21 for the second.

First: ATATTATTATAAACTTCACACATTTTATGGGTTTTT [CACACA_site4631]
Second: CGCATATTTTATGTTTGTACTCATATGAATATCATA [XGTACX_site4717]
The “gcPBM binding intensity (ln)” value of the first is higher: 9.29 for the first, 9.21 for the second.

First: CATAAGCACAAGCACAAGCACACATTTATATATATA [CACACA_site882]
Second: TTGTATATATTAAATTGTACTTATTTTTTGTATATA [XGTACX_site3251]
The “gcPBM binding intensity (ln)” value of the first is higher: 9.4 for the first, 9.21 for the second.

First: TATAAACATATAAAAAGTACATACCAATTAATATTA [XGTACX_site967]
Second: GGATAAAATGCTACGAGTACATAAGCATTTTTCCCT [XGTACX_site7796]
The “gcPBM binding intensity (ln)” value of the first is higher: 9.31 for the first, 9.18 for the second.

Compared with “TCTTTTAAAAATATAAAAAGGAATATATAAAAATGT [CACACA_negctrl_site332]”, “TATTCTGTGTATAAAAGTACAAATATTTAAATGTAT [XGTACX_site8234]” is lower in “gcPBM binding intensity (ln)” value: 9.12 for the first, 9.11 for the second.

Compared with “AATATATTCATCATATCAATATTGTCAAGCAAACGA [TGCATGCA_negctrl_site37]”, “GAATTTATTTTATTTTCACACACAAAAATAAATATC [CACACA_site8762]” is higher in “gcPBM binding intensity (ln)” value: 9.2 for the first, 9.48 for the second.

First: TTCTTTAATAAAATAATCTCAAAGAAAATTTTTTCT [GTGCAC_negctrl_site589]
Second: AATAAATAGATATATACACACATATATGTGTACATA [CACACA_site7476]
The “gcPBM binding intensity (ln)” value of the first is lower: 8.56 for the first, 9.78 for the second.

Compared with “TTATCCATTTTAATCACACATACTTTACTTTGGAAC [CACACA_site5584]”, “TGGAAAAATAGGCACACACACATATATACCTATATA [CACACA_site4843]” is higher in “gcPBM binding intensity (ln)” value: 9.23 for the first, 9.91 for the second.

Going from “TTTTTTTTTTTTGAGTGTACTAAAATATTACCTTTT [XGTACX_site646]” to “TGAATATTTACTTTAGCACACAATTTGTATTTGATT [CACACA_site960]”, the “gcPBM binding intensity (ln)” value rises from 8.97 to 9.44.

Going from “AATATTATAAATGATACACACTTAAAATACACCCAC [CACACA_site5498]” to “AATATATTTTAATACACACACACATATATATATATA [CACACA_site5969]”, the “gcPBM binding intensity (ln)” value rises from 9.83 to 9.9.

Compared with “TTTTTTTTAAATATCACACACATATAACATATTCTA [CACACA_site7687]”, “ATATGTATATAAATGTGTACTTATAAATATATATAT [XGTACX_site3250]” is higher in “gcPBM binding intensity (ln)” value: 9.37 for the first, 9.41 for the second.

Compared with “GAAATAGAGAAACACACACACATATATTTATGTATT [CACACA_site3967]”, “ATAAAAATAAAAAGATGTACGTATTTTTTTTTTTTT [XGTACX_site5329]” is lower in “gcPBM binding intensity (ln)” value: 9.99 for the first, 9.23 for the second.

Compared with “TATAAATAAATGCGTACACACTAATAAAAAAAAAAA [CACACA_site4630]”, “CATTATTATGATAGTTGTACAATTTTTATAAAAAAT [XGTACX_site4411]” is lower in “gcPBM binding intensity (ln)” value: 9.43 for the first, 9.17 for the second.

Going from “CTTCCTTAGGAATGTACACACATATATAATATGTTG [CACACA_site461]” to “TACAGACAGAAATGCACACACATATTTATATTTATA [CACACA_site7139]”, the “gcPBM binding intensity (ln)” value rises from 9.41 to 9.75.

First: TAATATTAATCCTAGTGTACATTAATTTATATGTAT [XGTACX_site3583]
Second: ATTATATATATATAAACACACAAATATTTTTATATA [CACACA_site5005]
The “gcPBM binding intensity (ln)” value of the first is lower: 9.22 for the first, 9.42 for the second.
